Laboratory results from PubChem BioAssay AID1508623 (National Center for Advancing Translational Sciences (NCATS), 2021).
In all, about 48,000 compounds went through this assay and about 450 (0.94%) were called active. Inconclusive results (about 19%) are left out. The call rests on the fitted dose curve; in most records, active means well fitted inhibition curve with a large enough effect; inconclusive means small, poorly fitted or top-dose-only effect; inactive means no such curve, though single readings can be large or run the other way. The list shows a part of the results.

Assay: Primary qHTS for Identification of Small Molecule Inhibitors of Huntingtin Promoter Activity; further: nearly all actives have a fitted effect of over 50% in size
Details: HEK293 HTT promoter firefly luciferase reporter (activity 0% = vehicle and -100% = no light), 24 h; series mostly up to 57.5 µM; activity change, negative = inhibition: at the top concentration
How it was run: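 HEK293 Fluc reporter, 2,500 cells/well, 24 h pre-culture; cpds up to 57.5 uM final, 24 h 37 degrees C; Dual-Glo, 10 min RT; normalized vehicle = 0%, zero RLU = -100%.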

Activity change, negative = inhibition, inactive:
N#Cc1c(-c2ccccc2)cc(-c2ccccc2)nc1SCC(O)CS(=O)(=O)Cc1ccc(Cl)cc1 (stereo unspecified) -35.8%
CCn1cc(/C=C(\NC(=O)c2cc(OC)c(OC)c(OC)c2)C(=O)NCCCn2ccnc2)c2ccccc21 -2.2%
Cc1cc(NC(=O)Cc2ccccc2)cc(-c2nc3ccccc3o2)c1O -6.48%
CCOC(=O)c1cc2c(=O)n3ccccc3nc2n(C(C)C)c1=NC(=O)C(C)(C)Oc1ccc(Cl)cc1 -5.31%
Cc1c(C(=O)NCCN(C)C)oc2c1-c1nn(Cc3cccc(Cl)c3)cc1CC2 0.0754%
CN(C)c1ccc(Nc2ncnc3c2c(-c2ccccc2)cn3-c2cccc(Cl)c2)cc1 -36.6%
Cc1cccc(S(=O)(=O)c2cn(Cc3ccccc3)c3cc(N4CCCCC4)c(F)cc3c2=O)c1 -13.4%
COC(=O)c1ccccc1NS(=O)(=O)c1cc2c(cc1C)N(C)CCO2 -1.22%
CCN(CC)C(=O)c1c(-c2ccccc2)c(-c2ccccc2)nn(CC)c1=O 0.436%
COc1ccccc1N1CCN(C(=O)CN2C(=O)COc3ccc(S(=O)(=O)N4CCOCC4)cc32)CC1 -6.86%
COc1ccc(CCC(=O)NC2CC(=O)N(c3ccc(F)cc3)C2)cc1 (stereo unspecified) -2.56%
CCN(Cc1nc(-c2ccc(OC)c(OC)c2)no1)S(=O)(=O)c1ccc(OC)cc1 0%
COc1ccc(-c2nc3sc(CCNC(=O)c4ccc(Br)o4)c(C)n3n2)cc1 1.69%
CN1[C@@H]2CC(OC(=O)[C@H](CO)c3ccccc3)C[C@H]1[C@@H]1O[C@@H]12 (stereo partly specified) -5.36%
O=C(CSc1nc(=O)n(Cc2ccccn2)c2c1CCC2)Nc1ccccc1 -27.9%
CSc1ccccc1NC(=O)CCS(=O)(=O)c1nc(-c2ccc3c(c2)OCO3)cc(C(F)(F)F)n1 10.1%
CC(C)(C)OC(=O)N1CCC(c2c(C(=O)NC3CCCCC3)cnn2-c2ccc(F)cc2F)CC1 -6.16%
COc1cc(CNC(=O)c2cnc(SC)nc2-c2ccccc2)cc(OC)c1OC -1.65%
Cc1ccc(S(=O)(=O)C(CNS(=O)(=O)c2cc(F)ccc2F)c2cccs2)cc1 (stereo unspecified) -30.5%
O=C(O)c1ccccc1C(=O)Nc1ccc(Br)c2cccnc12 12.3%
Cc1ccc(NC(=O)C2CCN(S(=O)(=O)c3cccc4nsnc34)CC2)cc1F -19.4%
CCCNC(=O)c1ccc2c(c1)nc1n2CCCCC1 56.5%
COc1cccc(CNC(=O)Cn2ncn3nc(-c4cccs4)cc3c2=O)c1 -13%
COc1ccc(NC(=O)C(=O)NCCc2csc3nc(-c4ccccc4F)nn23)cc1OC 6.2%
CC(=O)c1ccc(NS(=O)(=O)c2ccc3c(c2)NC(=O)CCS3)cc1 -10.5%
CCn1cc2nc(SCc3ccccc3Cl)n(Cc3ccc(OC)cc3)c(=O)c2n1 -24.9%
COc1cccc(CNC(=O)c2ccc(-c3nc(CSc4ccccc4)c(C)o3)cc2)c1 -11.7%
CC(=O)Nc1ccccc1-c1nc2ccccc2n(C(C)C(=O)Nc2ccccc2C(F)(F)F)c1=O (stereo unspecified) -18.2%
COc1ccc(-c2c(C)c3ccc(O)c(CN4CCC(C)CC4)c3oc2=O)cc1OC -18.3%
CN1CCN(c2ncnc3c2cnn3-c2cccc(Cl)c2)CC1 18.8%
COc1cc(OC)c(OC)cc1/C=C/c1nc2cc3ccccc3cc2c(=O)n1-c1ccccc1Br -21.6%
Cc1ccc(CNC(=O)c2cc(=O)c3cc(C)ccc3o2)cc1 -18.9% [at 11.5 µM]
COc1cc2c(c(OC)c1)C(c1cccc(F)c1F)CC(=O)N2 (stereo unspecified) -16.2%
CCOC(=O)c1c(NC(=O)c2cc(=O)c3cc(C)ccc3o2)sc2c1CCCC2 6.42% [at 11.5 µM]
Cc1ccc(Cn2c(C(=O)O)c(CNCc3ccc(C)o3)c3ccc(C)cc32)cc1 -23.6%
NC(=O)c1cnccn1
CC(C)Cn1cc(NC(=O)NCc2cccc(Cl)c2)c2ccccc2c1=O -18.8%
COc1ccc(NC(=O)c2cccc(N3CCCS3(=O)=O)c2)c(OC)c1 6.87%
O=C(NCCC1=CCCCC1)c1ccc2c(c1)sc1nc(-c3ccc(F)cc3)cn12 8.11%
CCN(CC)c1ccc(NC(=O)CN2CCN(CC(=O)Nc3ccc(Cl)cc3)CC2)cc1 -28.4%
Cc1ccc2oc(C(=O)Nc3sc4c(c3C(=O)NCC3CCCO3)CCC4)cc(=O)c2c1 (stereo unspecified) 6.42% [at 11.5 µM]
COCCNC(=O)Cn1nc(-c2ccccc2)c2ccccc2c1=O -18.8%
COc1cc(OC)c(C2CC(=O)Nc3ccc4ccccc4c32)cc1OC (stereo unspecified) -8.55%
Nc1nc(N)c(N=O)c(OCC2CCCCC2)n1 -14.9%
COC(=O)c1ccccc1NC(=O)c1nc(-c2ccc(C)cc2)n2c1CCCCC2 -15.7%
CC(NC(=O)c1cc2c(=O)n3ccccc3nc2n(C(C)C)c1=N)c1ccccc1 (stereo unspecified) -20.8%
CC(NC(=O)Cn1c(=O)oc2cc(S(=O)(=O)N3CCCCCC3)ccc21)c1ccccc1 (stereo unspecified) -13.8%
Cc1cccc(OC(=O)CSc2nnc(-c3ccc4c(c3)OCO4)o2)c1C -11.2%
Cc1ccc(C2=NN(CC(=O)NCCc3ccccc3)C(=O)CC2)cc1 11.9%
COc1cccc(Cn2c(=O)n(CC3CCC(C(=O)NC(C)C)CC3)c(=O)c3sccc32)c1 (stereo unspecified) 5.03%
Cc1cn(C)c(CC(=O)NCc2ccc(Cl)cc2)c1C(=O)O -5.94%
COc1cc(NC(=O)CN2C(=O)CCc3cc(Br)ccc32)cc(OC)c1OC -17.8%
Cc1cccc(-c2noc(-c3cc(C(C)C)[nH]n3)n2)c1 25.6%
CCOc1ccc(C2c3c(-c4cc(C)ccc4O)n[nH]c3C(=O)N2Cc2cccnc2)cc1OCC (stereo unspecified) -26.5%
COc1ccccc1NC(=O)CC(C)n1nc(C)cc1C (stereo unspecified) 11%
CCOC(=O)c1ccc(NC(=O)CSc2nc3c(c(=O)[nH]2)CN(Cc2ccccc2)CC3)cc1 -21.9%
COc1ccc(OC)c(CCNC(=O)CCCn2c(=O)c3cccn3c3ccc(F)cc32)c1 -2.44%
Cc1cc(F)ccc1NC(=O)CCS(=O)(=O)c1cc2c(cc1C)NC(=O)CO2 -18.3%
COc1ccccc1Nc1ncc2c(n1)CCN(Cc1ccc(C)s1)C2 3.96%
Cc1ccc2c(=O)c(C(=O)c3cccc(Cl)c3)cn(CC(=O)NC3CCCCC3)c2n1 -1.29%
Cc1ccc(N(CC(=O)N2CCN(c3ccc(F)cc3)CC2)S(=O)(=O)c2c(C)noc2C)cc1 -24.1%
